Results as given in the supplement of paper PMC6746778.
The other results are listed elsewhere or left out. Single values are uncertain, as repeats are few or missing.

Legend:
Experiment in all cases: proliferation Z-score within cell line (SRB, relative to all inhibitors screened on that line); triple-negative breast cancer lines and a kinase inhibitor library; SRB is the sulforhodamine B protein stain; higher = less growth inhibition (more resistant)
Conditions in all cases: concentration: 1 µM; 4 days
[1] = tested on: Bt20
[2] = tested on: Bt549
[3] = tested on: HCC1143
[4] = tested on: HCC1806
[5] = tested on: HCC1937
[6] = tested on: HCC38
[7] = tested on: HCC70
[8] = tested on: Hs578T
[9] = tested on: MDA-MB-231
[10] = tested on: MDA-MB-435s
[11] = tested on: MDA-MB-436
[12] = tested on: MDA-MB-453
[13] = tested on: MDA-MB-468
[14] = tested on: SKBR7
[15] = tested on: SUM1315MO2
[16] = tested on: SUM149PT
[17] = tested on: SUM159PT
[18] = tested on: SUM185PE
[19] = tested on: SUM229PE
[20] = tested on: SUM52PE
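Note: Single-dose primary screen of a 378-member kinase inhibitor library in 96-well plates, with growth read as absorbance of protein-bound SRB dye after TCA fixation.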

Row | Compound | proliferation Z-score within cell line [1] | proliferation Z-score within cell line [2] | proliferation Z-score within cell line [3] | proliferation Z-score within cell line [4] | proliferation Z-score within cell line [5] | proliferation Z-score within cell line [6] | proliferation Z-score within cell line [7] | proliferation Z-score within cell line [8] | proliferation Z-score within cell line [9] | proliferation Z-score within cell line [10] | proliferation Z-score within cell line [11] | proliferation Z-score within cell line [12] | proliferation Z-score within cell line [13] | proliferation Z-score within cell line [14] | proliferation Z-score within cell line [15] | proliferation Z-score within cell line [16] | proliferation Z-score within cell line [17] | proliferation Z-score within cell line [18] | proliferation Z-score within cell line [19] | proliferation Z-score within cell line [20]
1 | NC1(c2ccc(-c3nc4ccn5c(=O)[nH]nc5c4cc3-c3ccccc3)cc2)CCC1 | -0.72 | -0.605 | -0.0918 | 0.652 | -0.551 | 0.5 | -1.2 | -0.556 | 0.512 | 0.604 | -0.422 | -2 | -0.996 | 0.377 | 0.203 | 0.225 | -0.0627 | -1.79 | 0.87 | -1.23
2 | O=C(NOCC1CC1)c1ccc(F)c(F)c1Nc1ccc(I)cc1Cl | 0.494 | 0.0898 | -0.182 | -0.459 | 0.135 | 0.354 | 0.573 | 0.213 | -1.69 | -2.01 | 0.723 | 0.846 | 0.728 | 0.48 | 0.893 | -1.03 | 0.615 | 0.63 | -1.69 | -0.629
3 | N#CC(=Cc1ccc(O)c(O)c1)C(=O)NCc1ccccc1 [AG-490 (Tyrphostin B42)] | 1.02 | 0.477 | 0.686 | 0.765 | 0.512 | 0.532 | 0.791 | 0.687 | 0.952 | 0.989 | 0.724 | 0.717 | 0.637 | -0.0949 | 0.881 | 0.82 | 0.548 | 0.657 | 0.706 | 1.19
4 | Cc1cc(NC(=O)c2cccc(NC(=O)/C=C/CN(C)C)c2)ccc1Nc1nccc(-c2cccnc2)n1 | 0.539 | 0.126 | 0.0319 | -0.31 | 0.7 | 0.475 | 0.574 | 0.577 | 0.441 | 0.691 | 0.411 | 0.291 | -0.385 | 0.758 | -0.543 | 0.611 | 0.48 | 0.329 | 0.192 | 0.503
5 | O=C(O)c1ccc(-c2c[nH]c3ncc(-c4ccccc4)cc23)cc1C1CCCC1 | 0.582 | 0.237 | 0.673 | 0.683 | 0.587 | 0.267 | 0.582 | 0.313 | 0.653 | 0.729 | 0.805 | 0.596 | 0.774 | 0.841 | 0.662 | 0.563 | 0.238 | 0.604 | 0.691 | 0.884
6 | Cn1cnc(=N)c2[nH]cnc21 [3-Methyladenine] | 0.614 | 0.797 | 0.813 | 0.889 | 0.7 | 0.538 | 0.697 | 0.709 | 1.01 | 0.72 | 0.688 | 1.05 | 1.1 | 0.892 | 0.878 | 0.792 | 0.578 | 0.72 | 0.551 | 0.969
7 | Cc1[nH]c(/C=C2\C(=O)Nc3ccc(S(=O)(=O)N(C)c4cccc(Cl)c4)cc32)c(C)c1C(=O)N1CCN(C)CC1 | 0.147 | 0.118 | 0.973 | 0.628 | 0.936 | 0.432 | 0.855 | 0.531 | 0.259 | 1.06 | 0.65 | 0.638 | 0.638 | 0.0157 | 0.0199 | 0.745 | 0.648 | -0.252 | 0.14 | -0.155
8 | CNc1nc(-c2ccc3c(N)n[nH]c3c2)cc(N2C[C@@H](C(=O)NC3CCCCC3)CC[C@H]2C)n1 | -0.0617 | -0.342 | 0.0134 | 0.563 | -1.07 | 0.34 | -0.987 | -0.817 | -0.186 | -0.52 | -0.0796 | -1.14 | -0.793 | -0.538 | -0.331 | 0.28 | -0.0653 | -1.59 | 0.287 | -0.962
9 | C=CS(=O)(=O)NC1CCN(C(=O)CNc2cc(I)c(Cl)cc2OC)CC1 [K-Ras(G12C) inhibitor 9] | 0.222 | 0.177 | 0.62 | -0.596 | 0.297 | 0.275 | 0.326 | 0.331 | 0.622 | 0.315 | -0.87 | -0.587 | 0.233 | 0.00347 | 0.137 | 0.424 | 0.281 | 0.269 | 0.25 | 0.74
10 | COc1cc2ncnc(Nc3ccc(F)c(Cl)c3)c2cc1OCCCN1CCOCC1 [Gefitinib (ZD1839)] | -0.0997 | 0.478 | -0.24 | -1.81 | 0.407 | 0.455 | -0.997 | 0.449 | 0.805 | 0.777 | -0.0695 | 0.71 | -0.973 | 0.489 | 0.886 | -0.282 | 0.561 | 0.792 | -0.237 | 1.02
11 | CCN(CCO)CCCOc1ccc2c(Nc3cc(CC(=O)Nc4cccc(F)c4)[nH]n3)ncnc2c1 [Barasertib (AZD1152-HQPA)] | -1.74 | -0.419 | 0.322 | -0.252 | 0.56 | -0.626 | -1.43 | -0.176 | -0.333 | -0.462 | -0.247 | -0.658 | -1.4 | -0.361 | 0.324 | 0.234 | 0.594 | 0.284 | -0.188 | 0.727
